Assay results taken from PubChem BioAssay AID894 (National Center for Advancing Translational Sciences (NCATS), 2007).
Values joined by “and” are separate entries in the source; they are usually repeats but may differ in a detail not shown here. Equal entries are not always repeated. Among all 150,000 compounds or so, about 6,500 (4.3%) were called active. The inconclusive results got no clear call from the source; some entries with a clear call stand among them for comparison. The call rests on the fitted dose curve; in most records, active means well fitted inhibition curve with a large enough effect (not every such curve was filed as active); inconclusive means small, poorly fitted or top-dose-only effect, or another doubt; inactive means no such curve, though single readings can be large or run the other way. Where the call is inconclusive, the potency comes from a doubtful curve fit.

These compounds were tested against 15-hydroxyprostaglandin dehydrogenase [NAD(+)] (Homo sapiens) (UniProt P15428) (assay: qHTS Assay for Inhibitors of HPGD (15-Hydroxyprostaglandin Dehydrogenase)). Settings: purified HPGD, NADH fluorescence kinetic, PGE2 substrate; activity change, negative = inhibition: active compounds read low.
How it was run: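 NADH formation kinetics: reaction with 30 uM PGE2 and 1 mM NAD+ (final), 20 nM enzyme, Tris-HCl pH 8 with Tween 20, after 15 min compound preincubation at room temperature. Fluorescence change, last versus first of five reads.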
On the % scale 0 is the no-effect control and ±100 the full control effect; potency means the concentration at half of the fitted maximal effect; tags describe the fitted curve by direction and shape.

Chain of UniProt P15428 (P15428 whole entry, looked up): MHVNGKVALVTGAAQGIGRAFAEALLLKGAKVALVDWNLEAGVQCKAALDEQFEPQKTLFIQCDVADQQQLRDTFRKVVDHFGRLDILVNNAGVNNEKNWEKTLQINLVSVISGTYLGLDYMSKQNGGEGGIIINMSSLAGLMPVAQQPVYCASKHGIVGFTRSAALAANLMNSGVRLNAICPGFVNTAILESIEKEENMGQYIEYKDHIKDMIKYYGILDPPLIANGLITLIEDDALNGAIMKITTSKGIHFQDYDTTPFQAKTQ

Potency, inconclusive:
Cc1nn(-c2ccccc2)c2c1C(c1cccs1)C(C#N)=C(N)O2 (stereo unspecified) 31.6 µM [inhibitor, partial curve]
O=C(COC(=O)c1ccc2c(=O)n3c(nc2c1)CCC3)Nc1ccccc1F 28.2 µM [inhibitor, partial curve]
N#C[C@@H]1[C@@H]2C(=O)N(c3ccc4c(c3)OCCO4)C(=O)[C@@H]2C2c3ccccc3C=CN21 (stereo partly specified) 39.8 µM [inhibitor, single point]
O=C1c2ccccc2NC(c2ccccn2)N1c1ccccc1F (stereo unspecified) 17.8 µM [inhibitor, partial curve]
Cc1ccc(-c2nc(C#N)c(NCCc3ccccn3)o2)cc1 3.98 µM [inhibitor, partial curve]
Cc1cc(NCCCn2ccnc2)n2nc(C)c(-c3ccc(Cl)cc3)c2n1 25.1 µM [inhibitor, partial curve]
COCC(C)NC(=O)c1cc(-c2ccc(O)cc2)on1 (stereo unspecified) 11.2 µM [inhibitor, partial curve]
COc1ccc(/C=N/Nc2ncc(C(F)(F)F)cc2Cl)cc1OC 28.2 µM [inhibitor, partial curve]
CCCN(Cc1cc2ccc(C)cc2[nH]c1=O)C(=O)c1ccccn1 35.5 µM [inhibitor, single point]
O=C(CSc1ccc2nnc(-c3ccccc3)n2n1)NCC1CCCO1 (stereo unspecified) 31.6 µM [inhibitor, partial curve]
COc1ccc(S(=O)(=O)Nc2ccccc2C(=O)NCc2ccco2)cc1Br 20 µM [inhibitor, partial curve]
COC(=O)c1ccc(C(=O)OC)c(NC(=O)CSCc2ccccc2Br)c1 25.1 µM [inhibitor, partial curve]
CCn1c(-c2ccco2)nc2ccccc21 35.5 µM [inhibitor, partial curve]
Cc1cccc(Nc2nc3c(S(=O)(=O)c4ccccc4)nnn3c3ccccc23)c1 31.6 µM [inhibitor, partial curve]
O=C(COC(=O)C1CCN(S(=O)(=O)c2cc([N+](=O)[O-])ccc2Cl)CC1)Nc1ncc(Cl)cc1Cl 31.6 µM [inhibitor, partial curve]
CCc1cc(C(c2cccc(OC)c2)N2CCOCC2)c(NC(=O)c2ccccc2)s1 (stereo unspecified) 31.6 µM [inhibitor, partial curve]
O=C(NCCCc1ccccc1)c1ccccc1O 25.1 µM [inhibitor, partial curve]
Cc1ccc(S(=O)(=O)Cc2cn3cccnc3n2)cc1 25.1 µM [inhibitor, partial curve]
Cc1ccc(SCCC(=O)NC(C)C)cc1 31.6 µM [inhibitor, single point]
COc1ccc2nc(C)cc(SCC(=O)N/N=C/c3cccc4ccccc34)c2c1 31.6 µM [inhibitor, partial curve]
Cc1nc2cc(-c3ccccc3)nn2c(C)c1CCC(=O)NCc1ccco1 31.6 µM [inhibitor, partial curve]
Cc1cccc(NC(=O)CSc2ncnc3nc[nH]c23)c1 35.5 µM [inhibitor, single point]
Cc1cc(C)c(S(=O)(=O)N(C)CC(=O)N2CCCCC2)c(C)c1 31.6 µM [inhibitor, single point]
N#CC1=C(c2ccccc2)/C(=C/c2ccccc2)OC1=O 15.8 µM [inhibitor, partial curve]
O=c1nc(-c2ccccc2)c2ccccc2[nH]1 31.6 µM [inhibitor, partial curve]
COc1cccc(-c2nnn(CC(=O)Nc3cc(OC)c(NC(=O)c4ccco4)cc3OC)n2)c1 28.2 µM [inhibitor, partial curve]
COC(=O)c1cn(NC(=O)/C=C/c2cc(OC)ccc2OC)c(=O)c2ccccc12 25.1 µM [inhibitor, partial curve]
COc1cc(/C=N/Nc2nc(Nc3ccccc3)nc(-n3nc(C)cc3C)n2)cc(OC)c1OC 31.6 µM [inhibitor, partial curve]
CC(=O)c1sc2nc(C)cc(C)c2c1N 15.8 µM [inhibitor, partial curve]
COc1ccc(/C=C/C(=O)c2cc(O)ccc2O)cc1 15.8 µM [inhibitor, partial curve]
COc1ccc(-c2cc(-c3nnc(COC(=O)C4CC4)o3)c3ccccc3n2)cc1OC 31.6 µM [inhibitor, partial curve]
CN(CC(=O)N1CCN(c2ccc(F)cc2)CC1)S(=O)(=O)c1ccc(F)cc1 35.5 µM [inhibitor, single point]
Cn1c(=O)c2c(nc(SCc3nn[nH]n3)n2Cc2ccccc2F)n(C)c1=O 17.8 µM [inhibitor, partial curve, poor fit]
COc1ccc(-c2cc3ccccc3oc2=O)cc1NC(=O)c1ccc(Br)o1 28.2 µM [inhibitor, partial curve]
CC[C@@H](C)[C@H]1O[C@]2(CC[C@@H]1C)C[C@@H]1C[C@H](C/C=C(/C)[C@H](O[C@@H]3C[C@H](OC)[C@H](O[C@@H]4C[C@H](OC)[C@@H](O)[C@H](C)O4)[C@H](C)O3)[C@@H](C)/C=C\C=C3CO[C@@H]4[C@H](O)C(C)=C[C@@H](C(=O)O1)[C@]34O)O2 (tested in a mixture with another compound) 14.1 µM [inhibitor, full curve]
CCOC(=O)c1cc2c(=O)n3cccc(C)c3nc2n(Cc2ccco2)c1=NC(=O)c1cccnc1 14.1 µM [inhibitor, partial curve]

Potency, active:
COc1ccc(-c2csc(/C(C#N)=C(\O)CSc3nccn3C)n2)cc1OC 25.1 µM
O=c1[nH]c(SCc2cccc(F)c2)nc2c1CCCC2 7.08 µM
O=C(c1cc2ccccc2cc1OCC(O)CN1CCCCC1)N1CCCCC1 (stereo unspecified) 11.2 µM
CS(=O)(=O)Nc1ccc(C(=O)N2CCCC2)cc1 20 µM
O=C(CSc1nnc(-c2ccc(Br)o2)n1Cc1ccccc1)c1ccccc1F 31.6 µM
c1ccc(CCc2nn3c(Cn4cnc5ccccc54)nnc3s2)cc1 15.8 µM
O=C(OCc1nnc(-c2ccccc2)o1)c1ccc2ccccc2n1 25.1 µM
Cc1ccc(NC(=O)c2cc(N3C(=O)C=CC3=O)ccc2Cl)cc1C 3.16 µM
Cc1ccc(-c2csc3ncn(-n4c(C)ccc4C)c(=O)c23)o1 28.2 µM
COc1ccc(-c2nnc(SCc3nnc(-c4ccccc4)o3)n2-c2ccccc2)cc1 7.94 µM
O=c1cc(-c2ccccc2Cl)oc2c(NS(=O)(=O)c3cc(Cl)cc(Cl)c3O)ccc(O)c12 4.47 µM
Cc1cc(C)c(S(C)(=O)=O)c(Oc2ccccc2C)n1 28.2 µM
CCOc1ccc(Cl)cc1/C=N/O 11.2 µM
CNC(=O)c1c(NC(=O)c2nc3ccccc3s2)sc2c1CCC2 28.2 µM
O=C(Nc1ccccc1Cl)c1ccccc1Cl 28.2 µM
COc1ccccc1-c1ccc(NC2CCCCC2)nn1 7.08 µM
CCCc1nnc(SCc2ccc(OC)cc2)n1N 17.8 µM
COc1cccc(-c2nnc(SCC(=O)N3CCCc4ccccc43)o2)c1 28.2 µM

Activity change, negative = inhibition, inactive:
COc1ccc(NC(=O)N2CC3(CCN(S(C)(=O)=O)CC3)C2)cc1 -1.67%
C=CCNC(=S)Nc1ccc2nc(C)c(C)nc2c1 -23.7%
Cc1c(C#N)c(SCC(N)=O)nc2c1CCCC2 -8.47%
Cc1sc2ncnc(SCC(=O)c3cccs3)c2c1C -23.6%
Cc1ccnc(N2C(=O)c3ccccc3C2Nc2cccc(C)c2C)c1 (stereo unspecified) -12.3%
CCSCCCC(=O)O -8.42%
CC(=O)C1=C(O)C(=O)N(c2cccnc2)C1c1ccc(Cl)cc1 (stereo unspecified) -29.4%
COc1ccc(/C(=C/c2ccc(OC(F)F)c(OC)c2)C(=O)O)cc1OC -15.4%
COc1ccc(CCNC(=O)CSc2nnc(-c3cccc(F)c3)o2)cc1OC -14.4%
Cc1noc(C)c1C(=O)OCC(=O)NC1CC1 -6.01%
CCC1=C2CC[C@H]3C(=O)N(c4ccccc4)C(=O)[C@H]3[C@H]2[C@@]2(Cc3ccccc3)C(=O)N(CC(=O)OC)C(=O)N2C1=O -2.41%
Cc1ccc(CNC(=O)Nc2cccs2)cc1 -22.8%
Cc1ccccc1C(=O)NC1CCN(Cc2nnnn2C2CCCC2)CC1 -6.48%
C[n+]1ccccc1/C=N/O -10.8% and -0.206% and -12.6%
O=C1N/C(=C/c2ccc(Br)cc2)C(O)=C1C=NCc1ccccc1 -5.21%
O=C(CCn1c(=O)[nH]c2ccsc2c1=O)N1CC(=O)N(CCc2ccccc2)C(=O)C1 -9.39%
CC(=O)c1cccc(NS(=O)(=O)c2ccc3c(c2)oc(=O)n3C)c1 -23.2%
